Columns and labels:
[1] = test system: AR42 J tumor cells; assay: Cell uptake and internalization, 161Tb- vs 177Lu-labeled peptides; format: cell-based, rat; settings: 1 μM DOTANOC
Procedure: The well-plates were incubated under standard cell culture conditions for 0.5 h, 2 h or 4 h. […] The total uptake and the internalized fractions were determined using a γ-counter (Perkin Elmer, Wallac Wizard 1480). […] Experiments were performed twice or three times in triplicate. Statistical analysis was performed using a two-way ANOVA with Tukey's multiple comparisons post-test.

[2] = test system: AR42 J tumor cells; assay: Cell viability assay (MTT); format: cell-based, rat; settings: 2 h exposure, 6 d growth
[3] = test system: AR42 J tumor cells; assay: Nuclear localization of the radiopeptides; format: cell-based, rat; settings: 2.5 MBq, 125 pmol, 2 h
Procedure: The next day, the medium was removed, the tumor cells were washed with PBS (pH 7.4) and 19.5 ml of assay medium was added. The radiopeptides were added in a volume of 0.5 ml (2.5 MBq, 125 pmol) and the tumor cells incubated for 2 h at 37° C. Afterwards, the cells were washed several times with PBS (pH 7.4) to completely remove excess of radiopeptides. Subsequently, the cell nuclei and cytoplasm/membrane fractions were harvested according to the manufacturer's protocol using the Nucli EZ Prep Nuclei Isolation Kit (Sigma Aldrich, USA). Ice-cold Nuclei EZ lysis buffer (4 mL) were added to each Petri dish to lyse the tumor cells followed by transfer of the cell suspension into Eppendorf tube for centrifugation for 5 min at 500 rcf at 4° C. The supernatant containing cytoplasm/membrane fractions was transferred to a tube for counting activity in a γ-counter. The pellet was resuspended in 4 ml ice-cold Nuclei EZ lysis buffer followed by additional centrifugation for 5 min at 500 rcf at 4° C. […] The measured activity of nuclei and cytoplasm/cell membrane fractions was defined as 100% of the cellular uptake. Nuclear localization was expressed as percentage of total cellular uptake. The collected fractions were stained with 0.4% trypan blue solution and analyzed using a microscope in order to confirm that the nuclei were properly separated from other cell fragments.

[4] = test system: AR42 J tumor cells; settings: n=1

Structure (SMILES)	cell uptake with excess DOTANOC [1]	EC50 (95% Confidence Interval) [2] [MBq/mL]	nuclear uptake [3]	activity concentration for a similar effect (as 0.50 MBq/mL [161Tb]Tb-DOTATOC) [4] [MBq/mL]
C[C@@H](O)[C@@H]1NC(=O)[C@H](CCCCN)NC(=O)[C@@H](Cc2c[nH]c3ccccc23)NC(=O)[C@H](Cc2ccc(O)cc2)NC(=O)[C@@H](NC(=O)[C@@H](Cc2ccccc2)NC(=O)CN2CCN(CC(=O)O)CCN(CC(=O)O)CCN(CC(=O)O)CC2)CSSC[C@@H](C(=O)N[C@H](CO)[C@@H](C)O)NC1=O [[^161Tb]Tb-DOTATOC] [metal not drawn]	prevented the cell uptake	1.6		
C[C@@H](O)[C@@H]1NC(=O)[C@H](CCCCN)NC(=O)[C@@H](Cc2c[nH]c3ccccc23)NC(=O)[C@H](Cc2ccc(O)cc2)NC(=O)[C@@H](NC(=O)[C@@H](Cc2ccccc2)NC(=O)CN2CCN(CC(=O)O)CCN(CC(=O)O)CCN(CC(=O)O)CC2)CSSC[C@@H](C(=O)N[C@H](CO)[C@@H](C)O)NC1=O [[^177Lu]Lu-DOTATOC] [metal not drawn]	prevented the cell uptake	8.2	< 1 % of total cellular uptake	5

From patent US20240181094A1, “[161Tb]-BASED RADIOPEPTIDES” (priority 2021, published 2024)
